The source of these data is patent US20230192896A1 (published 2023).

One may read the Kd as the free concentration of one partner at which half of the binding sites on the other are occupied at equilibrium, for simple one-to-one binding. Lower therefore signals tighter binding.

The assay has as its target T1, FX zymogen (UniProt P00742 41-179; P00742 183-488).
T1 chain 1: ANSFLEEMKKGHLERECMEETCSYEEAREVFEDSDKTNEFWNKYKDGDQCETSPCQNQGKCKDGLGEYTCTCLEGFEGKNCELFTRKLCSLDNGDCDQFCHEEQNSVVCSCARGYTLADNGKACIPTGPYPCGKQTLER
T1 chain 2: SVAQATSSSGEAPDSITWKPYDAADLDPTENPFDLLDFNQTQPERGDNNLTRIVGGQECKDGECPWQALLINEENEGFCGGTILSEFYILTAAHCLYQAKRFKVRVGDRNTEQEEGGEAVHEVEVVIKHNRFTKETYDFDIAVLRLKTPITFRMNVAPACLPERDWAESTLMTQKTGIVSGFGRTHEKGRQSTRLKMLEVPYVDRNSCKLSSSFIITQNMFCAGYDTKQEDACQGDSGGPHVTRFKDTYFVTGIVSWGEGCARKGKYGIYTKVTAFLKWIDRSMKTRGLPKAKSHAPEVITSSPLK
Nature of the assay: BLI.

B1: BIIB-12-1334 (antibody, V domains shown)
VH: QVQLVESGGGVVQPGRSLRLSCAASGFTFSSYGMHWVRQAPGKGLEWVAVISYDGSNKYYADSVKGRFTISRDNSKNTLYLQMNSLRAEDTAVYYCARVPRKQTGHVDYWGQGTLVTVSS
VL: [here about 100 residues without letters]IGTPWTFGGGTKVEIK
As to B1, the affinity, expressed as Kd, was 18.8 nM.
